Assay results taken from EP3072511A1, “The medical use of 3-aryl substituted 1-indanones” (Centrum Badan Molekularnych I Makromolekularnych Polskiej …, priority 2013, dated 2016).

Tested on: cell line K562 (chronic myelogenous leukemia, human)
Experiment: MTT cytotoxicity test, K562 cells
Conditions: K562, 48 h, read-out: K562 IC50 after 48h

## COP(=O)(OC)C1C(=O)c2cc3c(cc2C1c1ccccc1)OCO3 (centres unmarked) [Compound 1a, 2-phosphoryl-3-phenyl substituted 1-indanone]
  IC50: 100 µM

## COc1cc(OC)c2c(c1)C(=O)CC2c1ccc(Br)cc1 (centres unmarked) [Compound 3a, 3-(para-bromophenyl) substituted 1-indanone]
  IC50: 10 µM
